No constants are given. Whether binding was seen depends on the method and setting. Binding seen in cells or lysates may run through a third protein. Some entries that bind do so weakly or less than the wild type.
What was measured:
Assay in all cases: co-IP; GFP-tagged TOPBP1 constructs captured on GFP-Trap magnetic agarose from Benzonase-treated lysates of transfected 293FT cells (200 mM NaCl, 2 mM EDTA, 4 °C); endogenous partners detected by blot
[1] = target: GFP-tagged full-length TOPBP1 K154A/K155A (BRCT1 mutant) (UniProt Q92547)
[2] = target: GFP-tagged full-length TOPBP1 K704A (BRCT5 mutant) (UniProt Q92547)
[3] = target: GFP-tagged full-length TOPBP1, wild type (UniProt Q92547)

The chains behind the UniProt entries cited, without tags or fusion partners. Where a name states a change or a piece, a line headed by the entry shows the natural chain unless it says otherwise.
UniProt Q92547: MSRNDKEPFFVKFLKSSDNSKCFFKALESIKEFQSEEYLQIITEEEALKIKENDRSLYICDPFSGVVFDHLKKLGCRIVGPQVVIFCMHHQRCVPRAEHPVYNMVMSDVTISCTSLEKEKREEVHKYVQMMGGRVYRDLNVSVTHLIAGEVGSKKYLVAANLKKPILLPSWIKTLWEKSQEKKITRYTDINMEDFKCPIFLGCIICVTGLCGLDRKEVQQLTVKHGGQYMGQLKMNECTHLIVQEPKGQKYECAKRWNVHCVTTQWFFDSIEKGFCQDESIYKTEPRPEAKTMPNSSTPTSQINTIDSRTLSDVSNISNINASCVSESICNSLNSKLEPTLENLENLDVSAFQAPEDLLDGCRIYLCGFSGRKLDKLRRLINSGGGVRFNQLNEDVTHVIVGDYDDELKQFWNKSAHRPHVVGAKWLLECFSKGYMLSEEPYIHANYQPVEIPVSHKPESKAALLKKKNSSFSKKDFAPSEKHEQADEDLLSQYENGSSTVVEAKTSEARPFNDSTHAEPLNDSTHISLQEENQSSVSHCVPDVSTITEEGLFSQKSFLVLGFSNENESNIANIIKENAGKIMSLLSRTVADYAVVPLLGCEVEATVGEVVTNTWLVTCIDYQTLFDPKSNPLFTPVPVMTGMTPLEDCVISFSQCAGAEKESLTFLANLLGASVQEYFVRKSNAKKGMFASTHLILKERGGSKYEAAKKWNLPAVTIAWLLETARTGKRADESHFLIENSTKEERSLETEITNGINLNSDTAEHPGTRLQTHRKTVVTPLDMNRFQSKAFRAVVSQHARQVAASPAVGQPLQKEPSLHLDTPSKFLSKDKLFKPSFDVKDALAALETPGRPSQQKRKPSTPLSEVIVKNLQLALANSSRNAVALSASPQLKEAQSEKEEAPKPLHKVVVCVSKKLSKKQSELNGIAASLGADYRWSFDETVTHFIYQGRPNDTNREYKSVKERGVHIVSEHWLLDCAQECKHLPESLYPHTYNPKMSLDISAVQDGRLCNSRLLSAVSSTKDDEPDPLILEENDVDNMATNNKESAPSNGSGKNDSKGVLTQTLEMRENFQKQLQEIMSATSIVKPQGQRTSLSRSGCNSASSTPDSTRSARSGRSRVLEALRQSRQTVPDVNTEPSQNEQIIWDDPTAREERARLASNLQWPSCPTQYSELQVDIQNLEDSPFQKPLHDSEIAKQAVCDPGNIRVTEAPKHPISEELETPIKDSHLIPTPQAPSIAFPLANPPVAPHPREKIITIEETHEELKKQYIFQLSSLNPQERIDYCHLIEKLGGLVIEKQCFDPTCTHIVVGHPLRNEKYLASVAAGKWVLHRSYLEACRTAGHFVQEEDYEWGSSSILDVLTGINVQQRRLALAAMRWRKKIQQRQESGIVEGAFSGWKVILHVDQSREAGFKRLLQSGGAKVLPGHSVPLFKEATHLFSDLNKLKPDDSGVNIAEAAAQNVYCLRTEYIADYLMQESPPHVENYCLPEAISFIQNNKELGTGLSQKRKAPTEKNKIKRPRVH

| Binder | binding [1] | binding [2] | binding [3] |
| --- | --- | --- | --- |
| RAD9, endogenous (293FT) (protein, UniProt Q99638 1-391) MKCLVTGGNVKVLGKAVHSLSRIGDELYLEPLEDGLSLRTVNSSRSAYACFLFAPLFFQQYQAATPGQDLLRCKILMKSFLSVFRSLAMLEKTVEKCCISLNGRSSRLVVQLHCKFGVRKTHNLSFQDCESLQAVFDPASCPHMLRAPARVLGEAVLPFSPALAEVTLGIGRGRRVILRSYHEEEADSTAKAMVTEMCLGEEDFQQLQAQEGVAITFCLKEFRGLLSFAESANLNLSIHFDAPGRPAIFTIKDSLLDGHFVLATLSDTDSHSQDLGSPERHQPVPQLQAHSTPHPDDFANDDIDSYMIAMETTIGNEGSRVLPSISLSPGPQPPKSPGPHSEEEDEAEPSTVPGTPPPKKFRSLFFGSILAPVRSPQGPSPVLAEDSEGEG | no binding | binds | binds |
| Treacle, endogenous (293FT) (protein, UniProt Q13428 1-1488) MAEARKRRELLPLIYHHLLRAGYVRAAREVKEQSGQKCFLAQPVTLLDIYTHWQQTSELGRKRKAEEDAALQAKKTRVSDPISTSESSEEEEEAEAETAKATPRLASTNSSVLGADLPSSMKEKAKAETEKAGKTGNSMPHPATGKTVANLLSGKSPRKSAEPSANTTLVSETEEEGSVPAFGAAAKPGMVSAGQADSSSEDTSSSSDETDVEGKPSVKPAQVKASSVSTKESPARKAAPAPGKVGDVTPQVKGGALPPAKRAKKPEEESESSEEGSESEEEAPAGTRSQVKASEKILQVRAASAPAKGTPGKGATPAPPGKAGAVASQTKAGKPEEDSESSSEESSDSEEETPAAKALLQAKASGKTSQVGAASAPAKESPRKGAAPAPPGKTGPAVAKAQAGKREEDSQSSSEESDSEEEAPAQAKPSGKAPQVRAASAPAKESPRKGAAPAPPRKTGPAAAQVQVGKQEEDSRSSSEESDSDREALAAMNAAQVKPLGKSPQVKPASTMGMGPLGKGAGPVPPGKVGPATPSAQVGKWEEDSESSSEESSDSSDGEVPTAVAPAQEKSLGNILQAKPTSSPAKGPPQKAGPVAVQVKAEKPMDNSESSEESSDSADSEEAPAAMTAAQAKPALKIPQTKACPKKTNTTASAKVAPVRVGTQAPRKAGTATSPAGSSPAVAGGTQRPAEDSSSSEESDSEEEKTGLAVTVGQAKSVGKGLQVKAASVPVKGSLGQGTAPVLPGKTGPTVTQVKAEKQEDSESSEEESDSEEAAASPAQVKTSVKKTQAKANPAAARAPSAKGTISAPGKVVTAAAQAKQRSPSKVKPPVRNPQNSTVLARGPASVPSVGKAVATAAQAQTGPEEDSGSSEEESDSEEEAETLAQVKPSGKTHQIRAALAPAKESPRKGAAPTPPGKTGPSAAQAGKQDDSGSSSEESDSDGEAPAAVTSAQVIKPPLIFVDPNRSPAGPAATPAQAQAASTPRKARASESTARSSSSESEDEDVIPATQCLTPGIRTNVVTMPTAHPRIAPKASMAGASSSKESSRISDGKKQEGPATQVSKKNPASLPLTQAALKVLAQKASEAQPPVARTQPSSGVDSAVGTLPATSPQSTSVQAKGTNKLRKPKLPEVQQATKAPESSDDSEDSSDSSSGSEEDGEGPQGAKSAHTLGPTPSRTETLVEETAAESSEDDVVAPSQSLLSGYMTPGLTPANSQASKATPKLDSSPSVSSTLAAKDDPDGKQEAKPQQAAGMLSPKTGGKEAASGTTPQKSRKPKKGAGNPQASTLALQSNITQCLLGQPWPLNEAQVQASVVKVLTELLEQERKKVVDTTKESSRKGWESRKRKLSGDQPAARTPRSKKKKKLGAGEGGEASVSPEKTSTTSKGKAKRDKASGDVKEKKGKGSLGSQGAKDEPEEELQKGMGTVEGGDQSNPKSKKEKKKSDKRKKDKEKKEKKKKAKKASTKDSESPSQKKKKKKKKTAEQTV | no binding | no binding | binds |

— paper PMC6949271
